According to ChEMBL document CHEMBL1157539, “Thousands of chemical starting points for antimalarial lead identification” (Nature, 2010):
In all, about 13,000 compounds were measured (“IFI”: median about 4, highest 2% from about 17 on). This is one part of the list.

assay: GSK_TCMDC: Inhibition Frequency Index (IFI). The number of non-kinase HTS assays where a compound showed > 50 % inhibition, expressed as a percentage of the number of such assays in which the compound was tested (-0 is zero); type: functional

Row | SMILES | IFI [%]
1 | O=C(Nc1ccc(Cl)c(Cl)c1)Nc1ccc2c(c1)CCNCC2 | 3.28
2 | CN1C(=C2SC(=Nc3ccc4ncccc4c3)N(Cc3ccccc3)C2=O)Sc2ccc(Cl)cc21 | 2.38
3 | CC(C)Sc1nc2c(c(=O)n1CCc1ccccc1)C1(CCCCC1)Cc1ccccc1-2 | 1.43
4 | Cc1ccc2[nH]c(-c3ccc(C=CC(=O)NCc4ccc(Cl)c(Cl)c4)cc3)nc2c1 | 2.24
5 | CNC(=O)COc1cc(C)c(C2CCN(CCCCNC(=O)c3ccc(-c4ccc(C(F)(F)F)cc4)cc3)CC2)cc1C | 7.14
6 | COc1cc(Cc2cnc(N)nc2N)cc(OCCCOc2ccccc2)c1OC | 0.75
7 | Cc1cccc2nc(-c3ccc(-c4ccc(CNCc5ccc(S(C)(=O)=O)cc5)cc4)cc3)[nH]c12 | 6.8
8 | O=C(Nc1ccsc1)Nc1cccc(-c2ccc(-c3nc4cc(C(F)(F)F)ccc4[nH]3)cc2)c1 | 5.88
9 | O=C(NCCN1CCCCC1)N1CCCN(c2ncnc3cc(-c4ccccc4)sc23)CC1 | 1.96
10 | Cc1cc(Br)cnc1CCCCNc1cc(=O)c2ccccc2[nH]1 | 9.09
11 | Cc1cccnc1Nc1nc(-c2ccccn2)cs1 | 10.4
12 | O=C(NCc1ccccc1)C1Cc2c([nH]c3ccc(Br)cc23)C2(CCN(Cc3ccccc3)CC2)N1 (stereo not given) | 6.38
13 | CCc1ccc(CN(Cc2ccc(C)cc2)Cc2ccc(NC(C)=O)cc2)cc1 | 1.43
14 | O=C(Cn1c(CCc2cccc(F)c2F)nc(=O)c2ccccc21)N(Cc1ccc(-c2ccc(C(F)(F)F)cc2)cc1)C1CCN(C2=NCCS2)CC1 | 12.5
15 | COc1ccc2nccc([C@@H](O)CN3CCC(NCCOc4ccc(F)cc4[N+](=O)[O-])CC3)c2c1 | 2.21
16 | Fc1ccc2nc(Nc3nc(-c4ccccn4)cs3)sc2c1 | 9.17
17 | COc1ccc2c(c1)ncn2-c1cc(OCc2ccncc2Br)c(C(N)=O)s1 | 3.81
18 | O=C(CSc1nc(-c2ccccc2Cl)ns1)Nc1cccc(F)c1 | 5.65
19 | CC1=C(C(=O)Nc2cc3cn[nH]c3cc2F)C(c2cccc(O)c2F)CC(=O)N1 (stereo not given) | 0
20 | OCCN1CCN(Cc2cccc(-c3cccc(-c4nc5cc(F)ccc5[nH]4)c3)c2)CC1 | 3.92
21 | CC(Cc1ccc(C(=O)OCCOC(=O)c2ccc(CC(C)NCC(O)c3cccc(C(F)(F)F)c3)cc2)cc1)NCC(O)c1cccc(C(F)(F)F)c1 (stereo not given) | 8.97
22 | CCOc1ccccc1CON1C(N)=NC(N)=NC1(C)C | 3.73
23 | OCCOCCNCc1cccc(C#Cc2cc3ncnc(Nc4ccc(OCc5cccc(F)c5)c(Cl)c4)c3s2)n1 | 4.38
24 | c1cc(-c2ccc(CNCCc3ccncc3)cc2)cc(-c2nc3ccccc3[nH]2)c1 | 3.85
25 | O=C(NC1CC1)c1cnc(N2CCC(Oc3ccc(Cl)cc3)CC2)c(Cl)c1 | 12
